# In PubChem BioAssay AID924 (National Center for Advancing Translational Sciences (NCATS), 2007):
# About 1,200 (0.92%) of roughly 130,000 compounds were called active. The inconclusive results got no clear call from the source; some entries with a clear call stand among them for comparison. The call rests on the fitted dose curve; in most records, active means well fitted cell-killing curve with a large enough effect; inconclusive means small, poorly fitted or top-dose-only effect; inactive means no such curve, though single readings can be large or run the other way. Where the call is inconclusive, the potency comes from a doubtful curve fit.
# Assay: qHTS Screen for Compounds that Selectively Target Cancer Cells with p53 Mutations: Cytotoxicity of p53ts Cells at the Permissive Temperature; further: nearly all actives have a fitted effect of over 55% in size;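 on activity change, negative = cytotoxicity: 0% = DMSO and -100% = full killing by reference compound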
# Details: H1299-p53A138V at 32C, ATP luminescence viability, 24 h; activity change, negative = cytotoxicity: at 46.1 µM (top of the series)
# Outline: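 Cells: H1299 p53ts (A138V), 600/well, pre-incubated 16–30 h at 37C. Cpd up to 46 uM, 24 h, 32C. Readout: ATPlite luminescence, 20 min RT. Normalization: DMSO vs tamoxifen 100 uM. AC50 by Hill equation.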
# Potency means the concentration at half of the fitted maximal effect; tags describe the fitted curve by direction and shape.
SMILES,Potency,"activity change, negative = cytotoxicity"
O=C(Nc1ccc(-c2nc3ccccc3o2)cc1)c1ccc2c(c1)OCO2,"inconclusive: 20 µM [cytotoxic, single point]",–
O=C(Nc1ccc(-c2nc3cccnc3s2)cc1)c1ccco1,"inconclusive: 5.01 µM [cytotoxic, full curve, poor fit]",–
CCc1ccc2oc(-c3cc(N)cc(C)c3O)nc2c1,"inconclusive: 10 µM [cytotoxic, partial curve]",–
Cc1nc2nc(-c3ccccc3)cn2nc1C,"inconclusive: 12.6 µM [cytotoxic, partial curve]",–
Cc1ccc(CC(=O)NCC(C)C)cc1,–,inactive: 2.83%
CCCCN(CC)S(=O)(=O)c1ccc(C(=O)Nc2nnc(-c3ccccc3Cl)o2)cc1,–,inactive: 1.37%
COC(=O)c1ccc2c(=O)n(CCCCCC(=O)N3CCN(c4cc(Cl)ccc4C)CC3)c(=O)[nH]c2c1,active: 6.31 µM,–
CSc1cccc(NC(=O)Nc2ccccc2)c1,"inconclusive: 12.6 µM [cytotoxic, partial curve]",–
Cc1c(N2C(=O)/C(=C\c3ccc(N(C)C)cc3)N(C)C2=S)c(=O)n(-c2ccccc2)n1C,"inconclusive: 0.0891 µM [cytotoxic, full curve]",–
O=C(NCc1ccc(Cl)cc1)c1ccc2c(c1)NC(=O)C(CS(=O)(=O)Cc1ccccc1Cl)N2 (stereo not drawn),"inconclusive: 31.6 µM [cytotoxic, single point]",–
CCN1CCN(Cc2ccc(NC(=O)Nc3ccccc3)cc2)CC1,"inconclusive: 7.94 µM [cytotoxic, partial curve]",–
CCn1c(=O)c2cc(C(=O)NCCCN(C)Cc3ccccc3)sc2c2ccccc21,"inconclusive: 15.8 µM [cytotoxic, single point]",–
CCC(C)NC(=O)c1cc(-c2ccc(OC)cc2)on1 (stereo not drawn),"inconclusive: 10 µM [cytotoxic, partial curve]",–
Cc1cccc(OCC(=O)N(Cc2ccc(N(C)C)cc2)Cc2ccco2)c1C,"inconclusive: 10 µM [cytotoxic, partial curve, poor fit]",–
O=C(NCc1cccnc1)c1c[nH]c2cc3c(cc2c1=O)OCCO3,"inconclusive: 12.6 µM [cytotoxic, single point]",–
Cc1ccc(CNC(=O)c2c[nH]n3c(=O)c(Cc4ccc(F)cc4Cl)c(C)nc23)cc1,"inconclusive: 11.2 µM [cytotoxic, partial curve, poor fit]",–
COc1ccc(Nc2c3c(nc4ccc(NC(=O)c5cc(Cl)ccc5OC)cc24)CCCC3)cc1OC,active: 5.62 µM,–
COc1ccc(N2CCN(c3oc(/C=C/c4ccccc4OC)nc3C#N)CC2)cc1,–,inactive: 2.41%
CN1CCN(c2ncc3nc(-c4ccc(F)cc4)c(=O)n(Cc4cccs4)c3n2)CC1,"inconclusive: 12.6 µM [cytotoxic, partial curve]",–
O=C(Nc1nc2c(s1)CCCC2)c1ccccc1F,active: 7.94 µM,–
CC(C)c1ccc(C2=NC(c3ccncc3)=Nc3ccc(F)cc3N2)cc1,–,inactive: 1.49%
COc1ccc(CNC(=O)c2cc3oc4ccccc4c3n2C)cc1OC,"inconclusive: 10 µM [cytotoxic, partial curve]",–
CCC(=O)Nc1ccc2oc(-c3ccccc3Br)nc2c1,"inconclusive: 12.6 µM [cytotoxic, single point]",–

SMILES,Potency,"activity change, negative = cytotoxicity"
COc1ccc(C(CC(=O)Nc2nccs2)n2cccc2)cc1 (stereo not drawn),"inconclusive: 12.6 µM [cytotoxic, partial curve]",–
COc1ccc(CCN2C(=O)CN(C3CCCCCC3)C(=O)C2c2ccc(Cl)cc2)cc1OC (stereo not drawn),"inconclusive: 7.08 µM [cytotoxic, partial curve]",–
CCCCCCNC(=O)CC(c1ccccc1)c1cc(Br)ccc1O (stereo not drawn),"inconclusive: 31.6 µM [cytotoxic, single point]",–
CCOc1ccc(C(=O)Nc2ccc(C(=O)OCc3cc(=O)n4c(C)csc4n3)cc2)cc1,"inconclusive: 25.1 µM [cytotoxic, single point]",–
CCc1ccc2oc(-c3cccc(NC(=O)c4cccnc4)c3)nc2c1,"inconclusive: 10 µM [cytotoxic, partial curve]",–
Cc1ccccc1OCCSc1nc2ccc(NC(=O)c3ccco3)cc2s1,"inconclusive: 14.1 µM [cytotoxic, single point]",–
Cc1ccc2c(c1)c1c(c(=O)n(-c3cccc(Cl)c3)c(=O)n1CC(N)=O)n2C,–,inactive: 2.05%
CCCc1nn2c(=O)cc(COC(=O)c3ccccc3NC(=O)c3ccc(OCC)cc3)nc2s1,–,inactive: -11.3%
COC(=O)[C@@]1(Cc2ccc(OC)cc2)[C@H]2c3cc(C(=O)N4CCCC4)n(CCc4c[nH]c5ccc(O)cc45)c3C[C@H]2CN1C(=O)c1ccccc1,–,inactive: 9.27%
CCOc1ccc(-c2cc3c(=O)n(CC(=O)NCc4ccccc4)ccn3n2)cc1,"inconclusive: 3.16 µM [cytotoxic, full curve]",–
COC(=O)c1ccc(-c2nc3cc(N)ccc3o2)cc1,"inconclusive: 2.82 µM [cytotoxic, full curve]",–
Cc1cc(C)nc(Nc2ccc(N3CCOCC3)cc2)n1,active: 12.6 µM,–
CCOc1ccccc1NC(=O)CSc1nc2cc(OC)c(OC)cc2c2nc(CCn3c(C)nc4ccccc43)nn12,"inconclusive: 15.8 µM [cytotoxic, single point]",–
CCN(CC)S(=O)(=O)c1ccc2c(c1)c(=O)c(C(=O)N1CCN(c3ccc(OC)cc3)CC1)cn2C,–,inactive: 1.37%
CCCc1nc2ccccc2c(=O)n1/N=C/c1ccccc1O,"inconclusive: 31.6 µM [cytotoxic, single point]",–
CC(=O)c1c(C)[nH]c(C(=O)CSc2nnc(-c3ccco3)n2Cc2ccccc2)c1C,"inconclusive: 15.8 µM [cytotoxic, single point]",–
N[C@@H](CNO)C(=O)O,–,inactive: -2.19% [at 9.22 µM]
CCOc1ccc(-c2cc(NC(=O)Nc3ccccc3Cl)c(C(=O)OC)s2)cc1,"inconclusive: 31.6 µM [cytotoxic, single point]",–
COc1cccc(CNC(=O)C2CCCN(S(=O)(=O)c3ccc4c(ccn4C)c3)C2)c1OC (stereo not drawn),–,inactive: -5.78%
CCOCCOCC,–,inactive: 3.69% [at 1.84 µM]
CCCCNC(=O)c1cc(-c2ccc(F)cc2)on1,"inconclusive: 10 µM [cytotoxic, partial curve]",–
CCCN=Cc1sc2ccc(OCC)cc2c1O,"inconclusive: 15.8 µM [cytotoxic, single point]",–
Cc1c(Cl)cc(C(C)(C)C)c(O)c1Cc1c(C)c(Cl)cc(C(C)(C)C)c1O,"inconclusive: 2.51 µM [cytotoxic, single point]",–

SMILES,Potency,"activity change, negative = cytotoxicity"
Cc1cc2c(n1-c1ccc(C(=O)NCc3cccc(Br)c3)cc1)CCC(C)C2 (stereo not drawn),–,inactive: 3.72%
Cc1cc(C(=O)Nc2sc3c(c2C#N)CCCCC3)cs1,"inconclusive: 12.6 µM [cytotoxic, partial curve]",–
Cc1ccc(CSc2nc3cccnc3n2Cc2ccc(C(=O)NCc3cccs3)cc2)cc1,"inconclusive: 3.16 µM [cytotoxic, full curve]",–
COc1cccc(-c2nc(NC3CC3)c3ccccc3n2)c1,"inconclusive: 20 µM [cytotoxic, single point]",–
COc1ccc(CC(=O)c2ccc(O)cc2O)cc1,–,inconclusive: -30.2% [cytotoxic]
Cc1ccc2c(c1)c1c(c(=O)n(-c3ccccc3C)c(=O)n1Cc1cccc(F)c1)n2C,"inconclusive: 0.794 µM [cytotoxic, full curve]",–
COc1cccc(NC(=O)c2oc3ccccc3c2NC(=O)c2ccc(OC(C)C)cc2)c1,"inconclusive: 10 µM [cytotoxic, partial curve]",–
CCCc1cc(=O)n2[nH]c(-c3ccc(Br)cc3)cc2n1,"inconclusive: 25.1 µM [cytotoxic, single point]",–
NC(=O)C1CCN(C(=O)COc2ccc3ccccc3c2)CC1,–,inactive: 0.844%
CC(C)CC(=O)Nc1cccc(-c2cn3cccnc3n2)c1,"inconclusive: 35.5 µM [cytotoxic, single point]",–
COC(=O)c1c(SCC(=O)Nc2ccccc2C(F)(F)F)[nH]c2ccc(Cl)cc2c1=O,"inconclusive: 5.01 µM [cytotoxic, full curve, poor fit]",–
C=CCn1c2ccccc2c2nnc(SCCCn3c(=O)[nH]c4ccccc43)nc21,"inconclusive: 25.1 µM [cytotoxic, single point]",–
CCOC(=O)c1ccc(N2C(=O)c3n[nH]c(-c4cccs4)c3C2c2cccc(O)c2)cc1 (stereo not drawn),"inconclusive: 31.6 µM [cytotoxic, single point]",–
COc1ccc(CC(=O)Nc2cc(-c3nc4cccnc4s3)ccc2C)cc1,"inconclusive: 12.6 µM [cytotoxic, partial curve]",–
O=C(CCC1CCCC1)Nc1ccc(OCC(=O)N2CCOCC2)cc1,active: 7.94 µM,–
COC(=O)c1ccccc1NC(=O)CSc1nnnn1C1CCCCC1,"inconclusive: 6.31 µM [cytotoxic, partial curve]",–
O=C(O)[C@H]1CCc2ccc3ccccc3c2[C@H]1c1cccc2ccccc12,–,inactive: 10.3% [at 9.22 µM]
CC(C)c1ccc2occ(CC(=O)Nc3cccc(C(F)(F)F)c3)c2c1,"inconclusive: 15.8 µM [cytotoxic, partial curve]",–
CC1CCCCN1c1nc(-c2ccc(C(C)(C)C)cc2)nc2ccccc12 (stereo not drawn),active: 10 µM,–
CC(=O)c1sc(NC(=O)C2COc3ccccc3O2)nc1C (stereo not drawn),"inconclusive: 10 µM [cytotoxic, partial curve]",–
CC(C)c1ccc(-c2nnn(CCC(=O)O)n2)cc1,active: 10 µM,–
O=C1c2ccccc2C(Cc2ccncc2)(Cc2ccncc2)c2ccccc21,–,inactive: -3.88%
